The results in this text go back to PubChem BioAssay AID1745853 (National Center for Advancing Translational Sciences (NCATS), 2022).

Holding throughout (experiment): Primary Screen for Target Class Profiling of Small Molecule Inhibitors of Methyltransferases
Assay [1] addresses Glycine N-methyltransferase (Homo sapiens) (UniProt Q14749). The note with it: purified enzyme, MTase-Glo SAH luminescence; measured here: GNMT inhibition; at 40 µM; stronger effect = lower value. In a few lines:
(§1)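 Each enzyme was reacted with SAM and its substrate, with compounds tested once at 40 uM; SAH formed was read by MTase-Glo luminescence.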

In assay [2] the target is Guanidinoacetate N-methyltransferase (Homo sapiens) (UniProt Q14353). The note with it: purified enzyme, MTase-Glo SAH luminescence; measured here: GAMT inhibition; at 40 µM; stronger effect = lower value. The method, boiled down: as §1
Assay [3] deals with Histamine N-methyltransferase (Homo sapiens) (UniProt P50135). The note with it: purified enzyme, MTase-Glo SAH luminescence; measured here: HNMT inhibition; at 40 µM; stronger effect = lower value. In a few lines:
as §1

For assay [4], the target named is Nicotinamide N-methyltransferase (Homo sapiens) (UniProt P40261). The note with it: purified enzyme, MTase-Glo SAH luminescence; measured here: NNMT inhibition; at 40 µM; stronger effect = lower value. In a few lines:
as §1

Assay [5] has as its target Phenylethanolamine N-methyltransferase (Homo sapiens) (UniProt P11086). The note with it: purified enzyme, MTase-Glo SAH luminescence; measured here: PNMT inhibition; at 40 µM; stronger effect = lower value. In a few lines: as §1

The other results are listed elsewhere or left out. Further columns of the screen follow, without active or inactive calls.
% is scaled to controls: 0 for no effect and ±100 for the full control effect.

As for `COc1cc(C(=O)OC[C@H]2O[C@@H](OC(C)(C)C(=O)O)[C@H](O)[C@@H](O)[C@@H]2O)cc(OC)c1O`, the activity change, negative = inhibition in assay [1] is 3.71%; in assay [2], 6.17%; in assay [3], 9.66%; in assay [4], -6.29%; in assay [5], 8.06%.
For `CCC(C)NC(=O)c1ccc2c(=O)n(C)c3nnc(SCC(=O)NCc4ccccc4)n3c2c1` (stereo not given), in that order: 1.95%, 0%, -0.878%, -5.27% and 1.71%.
Regarding `Cc1cc(C[C@@H]2COC[C@@H]2NC(=O)CCc2nc(-c3ccco3)no2)on1`, the activity change, negative = inhibition in assay [1] was -5.74%; in assay [2], 2.69%; in assay [3], 0.97%; in assay [4], -1.67%; in assay [5], -1.55%.
For `COc1cc(-c2nccc3c(=O)cc(N4CCOCC4)oc23)ccn1`, the activity change, negative = inhibition was 0.203% in assay [1]; -1.5% in assay [2]; 1.27% in assay [3]; -5.39% in assay [4]; 9.87% in assay [5].
Take `CC(C)OC(=O)C(C)Oc1ccc2c(=O)c(Oc3ccccc3Br)c(C(F)(F)F)oc2c1` (stereo not given): the activity change, negative = inhibition in assay [1] was -2.91%; in assay [2] it was 3.68%; in assay [3], -1.74%; in assay [4], -1.79%; in assay [5] it was -4.05%.
As to `CCN1CCC(N2CC(Oc3cccc(C(=O)NCC4CC4)c3)C2)CC1`, the activity change, negative = inhibition is 0.199% in assay [1]; -3.13% in assay [2]; -6.57% in assay [3]; -5.59% in assay [4]; 0.072% in assay [5].
Consider `COc1cc(C(=O)NC(=S)Nc2cccc(NC(=O)c3ccccc3)c2)cc(OC)c1OC`, for which the activity change, negative = inhibition in assay [1] was -4.15%; in assay [2] it was 1.59%; in assay [3] it was 9.65%; in assay [4], -7.19%; in assay [5] it was 2.8%.
Turning to `CC(=O)Nc1ccc(NC(=O)c2cccc(CN3CCCC(C#N)C3)c2)cc1` (stereo not given), the activity change, negative = inhibition in assay [1] is -5.77%; in assay [2], -1.62%; in assay [3], -0.488%; in assay [4] it was -0.972%; in assay [5] it was -2.18%.
Consider `Cc1oc(C(O)c2ccccc2)nc1C(=O)Nc1ccc(C(=O)Nc2ccccc2)cc1` (stereo not given), for which the activity change, negative = inhibition in assay [1] is -12.8%; in assay [2] it was -10.3%; in assay [3] it was -5.77%; in assay [4], -16.2%; in assay [5], 4%.
In the case of `CC1(C)CC2C3=CCC4C5(C)CCC(OC6OC(C(=O)O)C(O)C(O)C6OC6OC(CO)C(O)C(O)C6OC6OC(CO)C(O)C(O)C6O)C(C)(CO)C5CCC4(C)C3(C)CCC2(C)C(OC2OCC(O)C(OC3OC(CO)C(O)C(O)C3O)C2O)C1O` (stereo not given), the activity change, negative = inhibition in assay [1] is 2.67%; in assay [2] it was 0.177%; in assay [3], 7.35%; in assay [4], -12.5%; in assay [5] it was -2.31%.
Regarding `CCCCS(=O)(=O)N[C@@H]1CN(Cc2ccncc2)C[C@H]1CN(C)C`, the activity change, negative = inhibition was -6.03% in assay [1]; -8.08% in assay [2]; -9.75% in assay [3]; -5.63% in assay [4]; -9.59% in assay [5].
`CN1C(=O)c2cc(C(=O)N3CCN(c4ccccc4)CC3)nn2CC1(C)C(=O)NC1CCCCC1` (stereo not given): the activity change, negative = inhibition in assay [1] is -5.63%; in assay [2] it was -1.67%; in assay [3], -2.76%; in assay [4], -7.67%; in assay [5], -7.18%.
In the case of `CC(C)CCNC(=O)c1ccc2c(=O)[nH]c3c(C(=O)NC(C)C)sc(=S)n3c2c1`, the activity change, negative = inhibition in assay [1] is -18.6%; in assay [2], 0%; in assay [3] it was -7.37%; in assay [4] it was -31%; in assay [5], -29.4%.
For `CNC(=O)CCn1ccc2cc(S(=O)(=O)N3CCC(C)CC3)ccc21`, in that order: 1.83%, 0%, 1.37%, -1.1% and -2.9%.
With `NC1CCCCN(C(=O)c2ccc3n[nH]nc3c2)C1` (stereo not given), the activity change, negative = inhibition in assay [1] was 1.76%; in assay [2], 3.2%; in assay [3] it was 3.55%; in assay [4], -1.93%; in assay [5] it was 1.53%.
On to `COCC1CN(C)CC12CCN(C(=O)CC1=CCCCC1)CC2` (stereo not given), for which the activity change, negative = inhibition is -1.51% in assay [1]; -0.273% in assay [2]; -8.5% in assay [3]; -6.58% in assay [4]; 0.413% in assay [5].
For `COc1cccc(N2CCN(C(=O)CCC[C@@H]3[C@H]4CCCN5CCC[C@@H](CN3C)[C@@H]45)CC2)c1`, the activity change, negative = inhibition was 0.721% in assay [1]; 1.47% in assay [2]; -24.2% in assay [3]; -5.05% in assay [4]; 14.1% in assay [5].
For the compound `CC1(C)CCC2(C(=O)O)CCC3(C)C(=CCC4C5(C)CCC(O)C(C)(CO)C5C(O)CC43C)C2C1` (stereo not given), the activity change, negative = inhibition in assay [1] was 0.937%; in assay [2], 4.32%; in assay [3], 5.3%; in assay [4], -8.99%; in assay [5] it was 4.46%.
Turning to `CCOCCOC1CCN(C(=O)c2cnccn2)CC1`, the activity change, negative = inhibition is 0.366% in assay [1]; 1.32% in assay [2]; 2.21% in assay [3]; 0.165% in assay [4]; -10.3% in assay [5].
In the same order, the values of `C=CC(=O)N1CCCN(c2cc(NCCC(=O)O)nc(-c3ccccn3)n2)CC1` are 0.641%, 4.65%, 3.9%, -9.17% and -2.29%.
In the same order, the values of `O=C(Cc1cccs1)N1CCN(c2cc(C(F)(F)F)ncn2)CC1` are -6.46%, -6.28%, -2.39%, -9.69% and -26.6%.
Take `O=c1c2ccccc2n2c(-c3cccc(Cl)c3)nnc2n1CCc1ccccc1`: the activity change, negative = inhibition in assay [1] was -1.08%; in assay [2], 2.53%; in assay [3] it was 4.54%; in assay [4], -3.1%; in assay [5], -6.93%.
In the same order, the values of `COc1cc2oc(-c3ccc(O)cc3O)cc2c(OC)c1CC=C(C)C` are 1.1%, 8.71%, 6.39%, -3.66% and -5.58%.
In the same order, the values of `CCN1C(=O)c2cc3ccccc3n2CC1(C)C(=O)NCc1ccccc1OC` (stereo not given) are 7.1%, 3.16%, 6.96%, 8.91% and 2.9%.
`COCCN1C(=O)c2cccn2CC1CNS(=O)(=O)c1c(C)noc1C` (stereo not given): the activity change, negative = inhibition in assay [1] was -2.96%; in assay [2], -4.02%; in assay [3] it was -0.345%; in assay [4], -12.6%; in assay [5], -6.07%.
As for `COC(=O)c1cc2n(n1)CC(C)(C(=O)NC1CCCCC1)N(CCc1ccc(SC)cc1)C2=O` (stereo not given), the activity change, negative = inhibition in assay [1] was determined as 1.54%; in assay [2], 0%; in assay [3], 13.1%; in assay [4], 1.04%; in assay [5], 5.89%.
Consider `COc1ccc(C[C@H](NC(=O)[C@@]2(O)C[C@@H](O)[C@H](O)[C@@H](NS(=O)(=O)c3cccc(C(F)(F)F)c3)C2)C(N)=O)cc1`, for which the activity change, negative = inhibition in assay [1] was -1.24%; in assay [2] it was -1.47%; in assay [3], 0.291%; in assay [4] it was 1.58%; in assay [5], 1.61%.
In the same order, the values of `CCc1c[nH]c2ncnc(N3CC[C@](N)(CNC(=O)c4ccc(F)cc4F)C3)c12` are -10.4%, -6.26%, 8.29%, -34.9% and -29.1%.
